Here are results for 24 variants from the supplement of paper PMC7125110.

± gives the standard error. Variants at the background level are over-represented here. Where only a bound is given, the exact number is not on record here.

B1: glmS ribozyme (parent)
chain: AUAAAAGCGCCAGAACUACAGAAAUGUAGUUGACGAGGAGGAGGUUUAUCGAAUUUUCGGCGGAUGCCUCCAAA

Holding throughout (details): with glucosamine-6-phosphate
Series [1] covers variants of B1. The series can be described thus: self-cleavage kobs at 40 uM GlcN6P; higher = faster cleavage; RNA array. The essentials: (§1)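 The measurements used barcoded ribozyme variants on sequenced MiSeq chips, transcribed in situ by E. coli RNA polymerase and tracked at 37 °C with a hybridised Cy3 probe. Glucosamine-6-phosphate, 40 μM to 10 mM in HEPES/KCl/Mg(OAc)2 buffer, was flowed in while tiles were imaged over ~14 h. Baseline-normalised signals, also normalised to non-cleaving reference variants, gave per-tile medians that were fit to one- or two-exponential decays for kobs. kcat and KM resulted from weighted Michaelis–Menten fits across concentrations.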

In series [2] the parent is B1. The series is described as follows: self-cleavage kobs at 640 uM GlcN6P; higher = faster cleavage; RNA array. The essentials:
as §1

The variants in series [3] derive from B1. The series can be described thus: self-cleavage kobs at 160 uM GlcN6P; higher = faster cleavage; RNA array. Summed up:
as §1

The variants in series [4] derive from B1. The series can be described thus: self-cleavage kobs at 10000 uM GlcN6P; higher = faster cleavage; RNA array. Summed up:
as §1

Series [5] covers variants of B1. The series is described as follows: self-cleavage kobs at 2500 uM GlcN6P; higher = faster cleavage; RNA array. Summed up:
as §1

C34G U45G: the “self-cleavage kobs at 40 uM GlcN6P” value with glucosamine-6-phosphate [1] was less than 1e-05 s⁻¹. Further, the “self-cleavage kobs at 640 uM GlcN6P” value with glucosamine-6-phosphate [2] is less than 1e-05 s⁻¹. Further, the “self-cleavage kobs at 160 uM GlcN6P” value with glucosamine-6-phosphate [3] was less than 1e-05 s⁻¹. Further, the “self-cleavage kobs at 10000 uM GlcN6P” value with glucosamine-6-phosphate [4] was less than 1e-05 s⁻¹.

For G32C A39C, in the series with glucosamine-6-phosphate [1], the “self-cleavage kobs at 40 uM GlcN6P” value is less than 1e-05 s⁻¹.

Consider C16G U30C G37A G62U, for which the “self-cleavage kobs at 40 uM GlcN6P” value in the series with glucosamine-6-phosphate [1] was less than 1e-05 s⁻¹. For the same variant, the “self-cleavage kobs at 160 uM GlcN6P” value with glucosamine-6-phosphate [3] is less than 1e-05 s⁻¹.

For A15C G63C, the “self-cleavage kobs at 40 uM GlcN6P” value with glucosamine-6-phosphate [1] is less than 1e-05 s⁻¹. Besides, the “self-cleavage kobs at 640 uM GlcN6P” value with glucosamine-6-phosphate [2] was less than 1e-05 s⁻¹. Besides, the “self-cleavage kobs at 160 uM GlcN6P” value with glucosamine-6-phosphate [3] is less than 1e-05 s⁻¹. Besides, in the series with glucosamine-6-phosphate [4], the “self-cleavage kobs at 10000 uM GlcN6P” value is less than 1e-05 s⁻¹.

Turning to U30G A36G C71G, the “self-cleavage kobs at 40 uM GlcN6P” value with glucosamine-6-phosphate [1] is less than 1e-05 s⁻¹. In addition, the “self-cleavage kobs at 2500 uM GlcN6P” value with glucosamine-6-phosphate [5] was less than 1e-05 s⁻¹. In the series with glucosamine-6-phosphate [4], the “self-cleavage kobs at 10000 uM GlcN6P” value was less than 1e-05 s⁻¹.

On to A36G G40A, for which the “self-cleavage kobs at 40 uM GlcN6P” value in the series with glucosamine-6-phosphate [1] was less than 1e-05 s⁻¹. Besides, the “self-cleavage kobs at 640 uM GlcN6P” value with glucosamine-6-phosphate [2] is less than 1e-05 s⁻¹. In the series with glucosamine-6-phosphate [3], the “self-cleavage kobs at 160 uM GlcN6P” value was less than 1e-05 s⁻¹. Besides, the “self-cleavage kobs at 10000 uM GlcN6P” value with glucosamine-6-phosphate [4] is less than 1e-05 s⁻¹.

Turning to A14U G51A U57C G60U A64G U65G, in the series with glucosamine-6-phosphate [1], the “self-cleavage kobs at 40 uM GlcN6P” value was less than 1e-05 s⁻¹.

As to U31A C61A A64U, in the series with glucosamine-6-phosphate [1], the “self-cleavage kobs at 40 uM GlcN6P” value is less than 1e-05 s⁻¹. In the series with glucosamine-6-phosphate [4], the “self-cleavage kobs at 10000 uM GlcN6P” value was less than 1e-05 s⁻¹.

As for U31C G37U, the “self-cleavage kobs at 40 uM GlcN6P” value in the series with glucosamine-6-phosphate [1] was less than 1e-05 s⁻¹. Also, the “self-cleavage kobs at 640 uM GlcN6P” value with glucosamine-6-phosphate [2] is less than 1e-05 s⁻¹.

In the case of A36G U56G, in the series with glucosamine-6-phosphate [1], the “self-cleavage kobs at 40 uM GlcN6P” value was less than 1e-05 s⁻¹.

Regarding A33C G35U, in the series with glucosamine-6-phosphate [1], the “self-cleavage kobs at 40 uM GlcN6P” value is less than 1e-05 s⁻¹. Also, the “self-cleavage kobs at 640 uM GlcN6P” value with glucosamine-6-phosphate [2] was less than 1e-05 s⁻¹. For the same variant, the “self-cleavage kobs at 160 uM GlcN6P” value in the series with glucosamine-6-phosphate [3] is less than 1e-05 s⁻¹. Also, the “self-cleavage kobs at 2500 uM GlcN6P” value in the series with glucosamine-6-phosphate [5] is less than 1e-05 s⁻¹. The “self-cleavage kobs at 10000 uM GlcN6P” value with glucosamine-6-phosphate [4] is less than 1e-05 s⁻¹.

On to G29A A39U U69A, for which the “self-cleavage kobs at 40 uM GlcN6P” value with glucosamine-6-phosphate [1] was less than 1e-05 s⁻¹.

For the variant C34U A36G U45G, in the series with glucosamine-6-phosphate [1], the “self-cleavage kobs at 40 uM GlcN6P” value was less than 1e-05 s⁻¹. Also, the “self-cleavage kobs at 640 uM GlcN6P” value with glucosamine-6-phosphate [2] was less than 1e-05 s⁻¹. Besides, the “self-cleavage kobs at 2500 uM GlcN6P” value in the series with glucosamine-6-phosphate [5] is less than 1e-05 s⁻¹. The “self-cleavage kobs at 10000 uM GlcN6P” value with glucosamine-6-phosphate [4] was less than 1e-05 s⁻¹.

For the variant A14G G37A U54A, the “self-cleavage kobs at 40 uM GlcN6P” value with glucosamine-6-phosphate [1] was 7.89e-05 ± 1.6e-05 s⁻¹.

On to U31C C61G, for which the “self-cleavage kobs at 40 uM GlcN6P” value with glucosamine-6-phosphate [1] was less than 1e-05 s⁻¹. Moreover, in the series with glucosamine-6-phosphate [4], the “self-cleavage kobs at 10000 uM GlcN6P” value is less than 1e-05 s⁻¹.

With A15G U30G C70U, the “self-cleavage kobs at 40 uM GlcN6P” value in the series with glucosamine-6-phosphate [1] stood at 0.000184 ± 5.6e-05 s⁻¹. The “self-cleavage kobs at 640 uM GlcN6P” value in the series with glucosamine-6-phosphate [2] turned out to be 0.00102 ± 0.00026 s⁻¹. The “self-cleavage kobs at 10000 uM GlcN6P” value with glucosamine-6-phosphate [4] worked out at 0.0318 ± 0.013 s⁻¹.

On to C34G C50A A53G C71U, for which the “self-cleavage kobs at 40 uM GlcN6P” value in the series with glucosamine-6-phosphate [1] is less than 1e-05 s⁻¹.

Turning to G29U G44U G60U, the “self-cleavage kobs at 40 uM GlcN6P” value with glucosamine-6-phosphate [1] was less than 1e-05 s⁻¹. Besides, the “self-cleavage kobs at 640 uM GlcN6P” value with glucosamine-6-phosphate [2] was less than 1e-05 s⁻¹. The “self-cleavage kobs at 160 uM GlcN6P” value in the series with glucosamine-6-phosphate [3] is less than 1e-05 s⁻¹.

For the variant A33G G59U, the “self-cleavage kobs at 40 uM GlcN6P” value in the series with glucosamine-6-phosphate [1] was less than 1e-05 s⁻¹. Further, in the series with glucosamine-6-phosphate [2], the “self-cleavage kobs at 640 uM GlcN6P” value was less than 1e-05 s⁻¹. In addition, the “self-cleavage kobs at 10000 uM GlcN6P” value in the series with glucosamine-6-phosphate [4] is less than 1e-05 s⁻¹.

In the case of C34G A36C, the “self-cleavage kobs at 40 uM GlcN6P” value with glucosamine-6-phosphate [1] is less than 1e-05 s⁻¹. The “self-cleavage kobs at 640 uM GlcN6P” value in the series with glucosamine-6-phosphate [2] is less than 1e-05 s⁻¹. Moreover, in the series with glucosamine-6-phosphate [3], the “self-cleavage kobs at 160 uM GlcN6P” value is less than 1e-05 s⁻¹. Moreover, in the series with glucosamine-6-phosphate [4], the “self-cleavage kobs at 10000 uM GlcN6P” value was less than 1e-05 s⁻¹.

Consider G35U U54G, for which the “self-cleavage kobs at 40 uM GlcN6P” value with glucosamine-6-phosphate [1] is less than 1e-05 s⁻¹. Besides, the “self-cleavage kobs at 160 uM GlcN6P” value with glucosamine-6-phosphate [3] is less than 1e-05 s⁻¹. Moreover, the “self-cleavage kobs at 2500 uM GlcN6P” value with glucosamine-6-phosphate [5] was less than 1e-05 s⁻¹.

For the variant A36U G62C, in the series with glucosamine-6-phosphate [1], the “self-cleavage kobs at 40 uM GlcN6P” value is less than 1e-05 s⁻¹. Also, the “self-cleavage kobs at 640 uM GlcN6P” value with glucosamine-6-phosphate [2] is less than 1e-05 s⁻¹. The “self-cleavage kobs at 10000 uM GlcN6P” value in the series with glucosamine-6-phosphate [4] is less than 1e-05 s⁻¹.

With A15U G51A, in the series with glucosamine-6-phosphate [1], the “self-cleavage kobs at 40 uM GlcN6P” value was less than 1e-05 s⁻¹. Further, the “self-cleavage kobs at 640 uM GlcN6P” value in the series with glucosamine-6-phosphate [2] was less than 1e-05 s⁻¹. Also, in the series with glucosamine-6-phosphate [5], the “self-cleavage kobs at 2500 uM GlcN6P” value was less than 1e-05 s⁻¹. In the series with glucosamine-6-phosphate [4], the “self-cleavage kobs at 10000 uM GlcN6P” value is less than 1e-05 s⁻¹.

On to A15C G44A A53G, for which, in the series with glucosamine-6-phosphate [1], the “self-cleavage kobs at 40 uM GlcN6P” value was less than 1e-05 s⁻¹.
